In PubChem BioAssay (NCATS):
The inconclusive results got no clear call from the source; some entries with a clear call stand among them for comparison. For some assays here: Potencies beside an inconclusive call are fits to weak or partial responses and may not hold up. The source made the active and inactive calls. Calls follow the shape of the dose curve; as a rule, active = well fitted curve in the direction sought with a large enough effect; inconclusive = small, poorly fitted or top-dose-only effect, or another doubt; inactive = no such curve, though single readings can be large; an effect the other way counts as inactive or inconclusive.

Key:
CRL-7250 = normal cell line; assay: Cytotoxic Profiling of Annotated Libraries Using Quantitative High-Throughput Screening (AID 1296008); conditions: Five cell lines viability, CellTiter-Glo ATP luminescence, 48-72 h; max response: stronger effect = lower value; also: nearly all actives have a fitted effect of over 60% in size
Outline: (§1)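 Compounds were pin-transferred onto cells and incubated 48 or 72 hr at 37 degree Celsius, 95% humidity. CellTiter-Glo was added, plates sat 10 min at room temperature, then ATP-coupled luminescence was imaged as the viability read-out.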

HaCat = assay: as above; conditions: Five cell lines viability, CellTiter-Glo ATP luminescence, 48-72 h; max response: stronger effect = lower value
Outline: as §1

NIH3T3 = assay: as above; conditions: Five cell lines viability, CellTiter-Glo ATP luminescence, 48-72 h; max response: stronger effect = lower value
Outline: as §1

Es-2 = assay: Primary qHTS to identify gynecologic anti-cancer compounds using libraries of approved drugs and bioactive compounds (AID 1345084); conditions: Gynecologic cancer cell panel viability, ATPlite luminescence, 48 h; series mostly up to 57.5 µM; also: nearly all actives have a fitted effect of over 55% in size
Outline: (§2)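 Cell viability after 48 h drug treatment, ATPlite luminescence readout; five doses.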

Hek293T = assay: as above; conditions: Gynecologic cancer cell panel viability, ATPlite luminescence, 48 h, control line for the selectivity index; activity change, negative = cytotoxicity: at 57.5 µM (top of the series) unless noted
Outline: as §2

JEG-3 = assay: as above; conditions: Gynecologic cancer cell panel viability, ATPlite luminescence, 48 h; series mostly up to 57.5 µM
Outline: as §2

PA-1 = assay: as above; conditions: Gynecologic cancer cell panel viability, ATPlite luminescence, 48 h; series mostly up to 57.5 µM
Outline: as §2

SKOV3 = assay: as above; conditions: Gynecologic cancer cell panel viability, ATPlite luminescence, 48 h; series mostly up to 57.5 µM
Outline: as §2

Tov-21-G = assay: as above; conditions: Gynecologic cancer cell panel viability, ATPlite luminescence, 48 h; activity change, negative = cytotoxicity: at 57.5 µM (top of the series) unless noted
Outline: as §2

C33A = assay: as above; conditions: Gynecologic cancer cell panel viability, ATPlite luminescence, 48 h; series mostly up to 57.5 µM
Outline: as §2

CAOV3 = assay: as above; conditions: Gynecologic cancer cell panel viability, ATPlite luminescence, 48 h; activity change, negative = cytotoxicity: at 57.5 µM (top of the series)
Outline: as §2

CASKI = assay: as above; conditions: Gynecologic cancer cell panel viability, ATPlite luminescence, 48 h; series mostly up to 57.5 µM
Outline: as §2

OV90 = assay: as above; conditions: Gynecologic cancer cell panel viability, ATPlite luminescence, 48 h; series mostly up to 57.5 µM
Outline: as §2

[1] = P-glycoprotein substrates identified in KB-8-5-11 adenocarcinoma cell line, qHTS therapeutic library screen (AID 1346987); also: nearly all actives have a fitted effect of over 65% in size
Outline: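 Luminescence from CellTiter-Glo, read 5 min after addition, quantified survival of KB-8-5-11 (P-gp-overexpressing) cells exposed to compounds for 72 h. AC50 was derived from concentration-response curves.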

[2] = Primary fluorescence-based thiol-reactive (MSTI) qHTS assay for identification of artifact compounds. (AID 1845221);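 also: thiol-reactive compounds lower the probe fluorescence signal; nearly all actives have a fitted effect of over 65% in size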
Outline: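 Probe: MSTI 4 uM, PBS pH 7.4, 2% DMSO. Incubation 1 h, RT, light-protected. Readout fluorescence 525/598 nm.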

HeLa = assay: Primary qHTS to identify gynecologic anti-cancer compounds using libraries of approved drugs and bioactive compounds (AID 1345084); conditions: Gynecologic cancer cell panel viability, ATPlite luminescence, 48 h; activity change, negative = cytotoxicity: at 57.5 µM (top of the series); also: nearly all actives have a fitted effect of over 55% in size
Outline: as §2

Tov112D = assay: as above; conditions: Gynecologic cancer cell panel viability, ATPlite luminescence, 48 h; series mostly up to 57.5 µM
Outline: as §2

[3] = Primary qHTS for inhibitors of nuclear receptor binding SET domain protein 2 (NSD2) in an isogenic RCH-ACV NSD2 p.E1099K mutant (9B) (AID 1645876); also: nearly all actives have a fitted effect of over 70% in size

Measured: Potency
Potency is read from the fitted curve at half-maximal effect; tags tell the direction and shape of the fitted curve.

Cc1c[nH]c2nccc(Oc3c(F)cc(Nc4cc(Cl)nc(N)n4)cc3F)c12
inconclusive: CRL-7250 = 4.61 µM [inhibitor, full curve] | HaCat 29.1 µM [inhibitor, single point] | Hek293T 31.6 µM [cytotoxic, single point] | JEG-3 = 10 µM [cytotoxic, partial curve, poor fit] | PA-1 = 35.5 µM [cytotoxic, single point] | SKOV3 = 2.24 µM [cytotoxic, full curve, poor fit] | Tov-21-G 10 µM [cytotoxic, partial curve]
active: NIH3T3 = 10.3 µM | Es-2 = 12.6 µM

COc1cc2ncnc(N3CCC(Oc4cnc5ccccc5n4)C3)c2cc1OC (centres undefined)
active: CRL-7250 = 6.51 µM | CASKI 7.08 µM | Es-2 = 3.98 µM | Hek293T 3.55 µM
inconclusive: HaCat 2.06 µM [inhibitor, full curve, poor fit] | NIH3T3 = 1.46 µM [inhibitor, full curve] | C33A 15.8 µM [cytotoxic, partial curve, poor fit] | CAOV3 = 0.794 µM [cytotoxic, full curve] | JEG-3 = 22.4 µM [cytotoxic, single point] | OV90 = 25.1 µM [cytotoxic, single point] | PA-1 = 2 µM [cytotoxic, full curve, poor fit] | SKOV3 = 3.98 µM [cytotoxic, partial curve, poor fit] | Tov-21-G 6.31 µM [cytotoxic, partial curve, poor fit]

CNC(=O)c1ccccc1Nc1cc(Nc2ccc(N3CCOCC3)cc2OC)ncc1C(F)(F)F
active: [2] 1.5 µM | PA-1 = 15.8 µM
inconclusive: [1] 2.91 µM [inhibitor, full curve] | CRL-7250 = 0.206 µM [inhibitor, full curve] | HaCat 1.64 µM [inhibitor, full curve, poor fit] | NIH3T3 = 1.46 µM [inhibitor, full curve] | HeLa 20 µM [cytotoxic, partial curve, poor fit] | Tov-21-G 5.62 µM [cytotoxic, partial curve, poor fit]
inactive: Tov112D

N#Cc1c(Oc2ccc(F)c(NC(=O)Cc3cccc(C(F)(F)F)c3)c2)ccc2nc(NC(=O)C3CC3)sc12
active: [1] 7.31 µM | NIH3T3 = 1.46 µM | Es-2 = 5.62 µM | OV90 = 1.58 µM | PA-1 = 8.91 µM
inconclusive: CRL-7250 = 7.31 µM [inhibitor, partial curve, poor fit] | HaCat 20.6 µM [inhibitor, single point] | CAOV3 = 17.8 µM [cytotoxic, single point] | CASKI 11.2 µM [cytotoxic, partial curve, poor fit] | Hek293T 7.94 µM [cytotoxic, full curve] | JEG-3 = 5.62 µM [cytotoxic, full curve, poor fit] | SKOV3 = 22.4 µM [cytotoxic, single point] | Tov112D 10 µM [cytotoxic, partial curve]

COc1cc2c(Nc3cc(F)c(Cl)c(Cl)c3)ncnc2cc1OCC1CCCN(C)CCC1
inconclusive: CRL-7250 = 29.1 µM [inhibitor, single point] | C33A 31.6 µM [cytotoxic, partial curve, poor fit] | CASKI 20 µM [cytotoxic, partial curve, poor fit] | Es-2 = 28.2 µM [cytotoxic, single point] | HeLa 35.5 µM [cytotoxic, single point] | Hek293T 31.6 µM [cytotoxic, single point] | PA-1 = 25.1 µM [cytotoxic, partial curve, poor fit] | Tov-21-G 12.6 µM [cytotoxic, partial curve, poor fit] | Tov112D 35.5 µM [cytotoxic, partial curve, poor fit]
active: [3] 3.25 µM | HaCat 0.082 µM | NIH3T3 = 5.17 µM | CAOV3 = 12.6 µM | OV90 = 15.8 µM | SKOV3 = 17.8 µM
